# Experimental data: patent publication US12653914B2, “Compounds for fast and efficient click release” (priority 2019, dated 2026)
# Assay: Label release from radiolabeled mAb-conjugated TCO triggers in vitro, SEC with radioactivity detector
# Details: activator 2.4 (ca. 30 eq); PBS 37° C., 15-24 h; radiolabeled conjugate (^89Zr or ^111In)
# Method: mAb conjugate radiolabeled with ^111In and ^89Z (ca. 10 μg) was incubated with an excess (ca. 30 eq) of activator or without activator in 100 μL PBS at 37° C. After 15-24 h incubation the mixtures were analyzed by SEC with radioactivity detector and the amount of released Label was quantified.
molecule,measurement,value
"girentuximab-1.25: mAb girentuximab functionalized with 1.25 via reduced hinge and maleimide; radiolabeled with ^111In (conjugate, chains of the INN, looked up, conjugated with 1.25; 111In radiolabel, radiolabeled with ^111In) heavy: DVKLVESGGGLVKLGGSLKLSCAASGFTFSNYYMSWVRQTPEKRLELVAAINSDGGITYYLDTVKGRFTISRDNAKNTLYLQMSSLKSEDTALFYCARHRSGYFSMDYWGQGTSVTVSS[omitted - human IgG1 constant region] light: DIVMTQSQRFMSTTVGDRVSITCKASQNVVSAVAWYQQKPGQSPKLLIYSASNRYTGVPDRFTGSGSGTDFTLTISNMQSEDLADFFCQQYSNYPWTFGGGTKLEIKRTVAAPSVFIFPPSDEQLKSGTASVVCLLNNFYPREAKVQWKVDNALQSGNSQESVTEQDSKDSTYSLSSTLTLSKADYEKHKVYACEVTHQGLSSPVTKSFNRGEC",release (%),93.7%
